PubChem BioAssay AID624296 (National Center for Advancing Translational Sciences (NCATS), 2012)
About 9,900 (2.8%) of roughly 350,000 compounds were called active. The shares of active, inactive and inconclusive entries below differ from those in the screen. Calls follow the shape of the dose curve; as a rule, active = well fitted activation curve with a large enough effect; inconclusive = small, poorly fitted or top-dose-only effect; inactive = no such curve, though single readings can be large or run the other way. Potencies of inconclusive entries are left out as doubtful fits.

Assay: A quantitative high throughput screen for small molecules that induce DNA re-replication in MCF 10a normal breast cells. Also: nearly all actives have a fitted effect of over 50% in size. As to activity, positive = re-replication: % of control where 0% means no effect.
Details: MCF 10A DNA re-replication, Hoechst nuclear intensity, 48 h; activity, positive = re-replication: at 46.1 µM (top of the series)
Potency is read from the fitted curve at half-maximal effect; tags tell the direction and shape of the fitted curve.

SMILES | Potency | activity, positive = re-replication
O=C(CNC(=O)c1cc(-c2ccccc2)nn1-c1ccccc1)Nc1ccccc1Br | active: 11.6 µM | 
COc1ccc(Oc2ccc(N/C=C3\CCCC3=O)cc2)cc1 | inconclusive [activator, single point] | 
CCC(NC(=O)c1ccccc1NC(=O)c1ccco1)C(=O)NNC(=O)c1ccc(OC)cc1 (centres undefined) | inconclusive [activator, partial curve, poor fit] | 
CC1CCc2c(sc3ncn(CC(=O)N=Nc4c(O)[nH]c5ccccc45)c(=O)c23)C1 (centres undefined) | inconclusive [activator, full curve] | 
O=[N+]([O-])c1ccc(CNc2cccc(F)c2)s1 | inconclusive [activator, single point] | 
COc1ccc(N(Cc2cc3cc(OC)ccc3[nH]c2=O)C(=O)c2cccnc2)cc1 |  | inactive: -0.283%
CC(=O)c1cc(C(=O)c2ccccc2)sc1Nc1ccccc1 | inconclusive [activator, partial curve, poor fit] | 
COc1ccc(C(=O)N(Cc2nc(-c3ccc(C)cc3)no2)C(C)C)cc1OC | inconclusive [activator, single point] | 
COc1ccc(C2(O)CCN(Cc3nnnn3Cc3ccc(C)cc3)CC2)cc1 | active: 20.6 µM | 
O=C(Nc1cc(Cl)ccc1O)C1CC(c2ccccc2O)=NO1 (centres undefined) | inconclusive [activator, partial curve, poor fit] | 
CC(C)c1ccc2c(c1)CCC1C(C)(CN)CCCC21C (centres undefined) | active: 16.4 µM | 
COc1ccccc1-c1cc(C(=O)NCc2cccs2)no1 |  | inactive: 26.1%
CCCCn1c(=O)[nH]c(=O)c2c1nc(-c1ccc(OC)c(Br)c1)n2CC(C)C | inconclusive [activator, single point] | 
CCCCCn1cnc2sc(-c3ccccc3)cc2c1=O | inconclusive [activator, partial curve, poor fit] | 
CCOc1ccc(Br)cc1S(=O)(=O)Nc1ccc(NC(=O)c2ccccc2F)cc1 |  | inactive: 2.28%
CCOC(=O)c1[nH]c2ccc(OC)cc2c1NC(=S)N1CCN(c2cccc(C)c2C)CC1 | active: 14.6 µM | 
N#C/C(=C\c1ccccn1)c1ccccn1 | active: 20.6 µM | 
Cc1sc2nc(SCC(=O)NCc3ccco3)n(CCc3ccccc3)c(=O)c2c1C | inconclusive [activator, partial curve, poor fit] | 
Cc1ccc(NC(=O)c2cc(-c3cc(C)c(C)cc3O)n[nH]2)cc1C |  | inactive: 7.53%
CCOC(=O)N1CCN(C(=O)CSc2nnc(-c3cccc(OC)c3)o2)CC1 | inconclusive [activator, single point] | 
CC(CCc1ccccc1)NC(=S)NC(=O)c1ccco1 (centres undefined) |  | inactive: 5.27%
COc1cc(/C=C/C(=O)OCC(=O)N(C)CC(=O)Nc2ccc(F)cc2)ccc1OC(F)F |  | inactive: 10.8%
O=C(Nc1nnc(C2=COCCO2)o1)c1cccc(C(F)(F)F)c1 | inconclusive [activator, partial curve] | 

SMILES | Potency | activity, positive = re-replication
COc1ccc(-c2c(C)nn3c(-c4ccccc4)cc(C)nc23)cc1 |  | inactive: 2.47%
CCN(CC)S(=O)(=O)c1cc(C(=O)OCC(=O)NC(=O)c2cccn2C)ccc1C |  | inactive: -1.33%
O=C(CN1CCN(Cc2ccccc2Cl)CC1)N/N=C/c1ccco1 | inconclusive [activator, single point] | 
COC(=O)C1CCN(c2ccc(Cl)nn2)CC1 | inconclusive [activator, partial curve, poor fit] | 
Brc1ccc2c(c1)CNc1c(ncnc1N1CCOCC1)O2 | inconclusive [activator, partial curve, poor fit] | 
Cc1c(C(=O)Nc2ccc(-c3nnc4n3CCCCC4)cc2)oc2c1ccc1ccccc12 | inconclusive [activator, single point] | 
O=C(COc1ccc2ccccc2c1)NNC(=O)c1ccc([N+](=O)[O-])cc1 |  | inactive: -1.06%
COc1ccc(N2CC(C(=O)N[C@@H](CC(C)C)C(=O)NC3CCCC3)CC2=O)cc1 (some centres undefined) |  | inactive: -2.7%
CCC(=O)Nc1cccc(C(=O)/C=C/c2ccc(F)cc2)c1 | inconclusive [activator, single point] | 
COc1ccc(S(=O)(=O)c2c(O)cc(C)c(NS(=O)(=O)c3ccccc3)c2C)cc1 | inconclusive [activator, single point] | 
CC(=O)c1sc2nc(-c3ccco3)ccc2c1N | inconclusive [activator, single point] | 
COc1ccc(OC)c(/C=C/C(=O)c2ccc(Cl)cc2)c1 | inconclusive [activator, single point] | 
Cc1ccc(S(=O)(=O)N2CCN(CC(=O)N/N=C/C=C/c3ccccc3)CC2)cc1 |  | inactive: -6.12%
Cc1sc(NC(=O)CN2CCCC2)nc1-c1ccc2c(c1)CCN2C(=O)c1cccc(F)c1 | inconclusive [activator, single point] | 
CC1(C)Cc2c(C#N)c(NCCc3ccccc3)nc(-c3ccco3)c2CO1 | active: 14.6 µM | 
Cc1nn2c(-c3ccc(Cl)cc3Cl)nnc2s1 |  | inactive: -0.147%
O=C1NC(=O)C2(CCCCC2)N1 |  | inactive: -0.0471%
O=C(Cc1ccc(Cl)cc1)Nc1ccccc1Sc1ccccc1 | inconclusive [activator, partial curve] | 
CN(C(=O)CSc1nc(O)cc(=O)n1C1CCCC1)c1ccccc1 | inconclusive [activator, single point] | 
CCCCCOc1ccc(NC(=O)c2cc(SC)ccc2Cl)cc1 |  | inactive: 16.3%
O=c1oc(CCO)cc2ccc(Br)cc12 | inconclusive [activator, full curve, poor fit] | 
COc1ccc(-c2nc3cc(C)ccn3c2NC(=O)c2c(F)cccc2Cl)cc1 | inconclusive [activator, single point] | 
Cc1ccc2c(C)c(C(=O)Nc3ccc(S(N)(=O)=O)cc3)oc2c1C | inconclusive [activator, partial curve, poor fit] | 

SMILES | Potency | activity, positive = re-replication
CCOc1cc(/C=C2\SC(N3CCCCC3)=NC2=O)ccc1O | inconclusive [activator, partial curve, poor fit] | 
CCc1cccc(N(C)C(N)=Nc2cccc3ccccc23)c1 | inactive | 
CC(C)Sc1cc(Cl)nc(NC(=O)Nc2ccccc2)n1 | inconclusive [activator, single point] | 
CC[C@]12c3[nH]c4ccc(Cl)cc4c3CCN1C(=O)[C@@H](CC(=O)NCc1cccc(C(F)(F)F)c1)C[C@@H]2C(=O)N1CCN(C(=O)C2CC2)CC1 | inconclusive [activator, partial curve, poor fit] | 
O=C(CNC(=O)Cc1ccccc1)NCC(=O)N1CCN(C(c2ccccc2)c2ccccc2)CC1 |  | inactive: -0.469%
COc1cc(CCC(=O)N2CCN(S(=O)(=O)c3ccc(C)cc3)CC2)cc(OC)c1OC | inconclusive [activator, single point] | 
Cc1oc(-c2cc(F)ccc2F)nc1CN1CCCN(C(=O)c2ccco2)CC1 | inconclusive [activator, single point] | 
CCOc1ccccc1C(=O)N1CCN(c2cccc(Cl)c2)CC1 | inconclusive [activator, full curve, poor fit] | 
COc1ccc(-c2nc3c4ccccc4ccn3c2CN2CCCCC2)cc1OC |  | inactive: 15.8%
O=C1/C(=C\c2ccc(O)cc2)CCC1CNc1ccc(Cl)cc1 (centres undefined) | inconclusive [activator, full curve, poor fit] | 
C=CCn1c(SCC(=O)NCC)nnc1-c1cc2c(s1)CCC(CC)C2 (centres undefined) | inconclusive [activator, single point] | 
C#CCOCCOCCOCCNc1nc(N2CCN(C(=O)CCCCCCCCCCNC(=O)[C@@H]([C@H](C)O)n3cc(C)nn3)CC2)nc(N2CCN(C(=O)CCCCCCCCCCNC(=O)[C@@H]([C@H](C)O)n3cc(C)nn3)CC2)n1 | active: 13 µM | 
COc1ccc(NC(=O)c2cc(-c3ccccc3)nc3c2cnn3C(C)C)cc1 | inconclusive [activator, partial curve, poor fit] | 
CC/C(=N\NC(=S)Nc1ccc(OC)cc1)c1ccc(OC(F)F)cc1 | inconclusive [activator, single point] | 
O=C(CSC1=Nc2ccccc2C2CC=NN12)Nc1ccc(F)c(F)c1F (centres undefined) | active: 20.6 µM | 
Cc1ccc(OCC(=O)NC(=S)Nc2ccc(Br)c(C)n2)cc1 | inconclusive [activator, partial curve] | 
COc1ccc2cc(C3(C)NC(=O)N(CC(=O)NCC(F)(F)F)C3=O)ccc2c1 (centres undefined) |  | inactive: 3.02%
CC(C)[C@H](Nc1ccc(S(=O)(=O)N2CCOCC2)cc1[N+](=O)[O-])C(=O)OCC(=O)N(C(C)C)C(C)C | inconclusive [activator, partial curve, poor fit] | 
CCOC(=O)c1c(C)[nH]c(C)c1C(=O)Cn1nnc(-c2ccccc2C)n1 | active: 20.6 µM | 
Cc1cc(=O)oc2ccc(OC(=O)CC(C)C)cc12 | inconclusive [activator, single point] | 
CCCCC(O)(CCCC)C(=O)NN(C(=O)c1cccnc1Cl)c1ccccc1 |  | inactive: 2.41%
O=C(Nc1nc(-c2nc3ccccc3s2)cs1)c1ccc(S(=O)(=O)N2CCOCC2)cc1 |  | inactive: 22.4%
COc1ccc(-c2ccc3c(=O)cc(-c4ccsc4)oc3c2)cn1 | inconclusive [activator, single point] | 
